Measured values: PubChem BioAssay AID1240 (Sanford-Burnham Center for Chemical Genomics, 2008)
Where “and” joins values, the source holds several entries; their conditions need not be identical. Equal values may be shown once. Out of some 50,000 compounds screened, about 800 (1.6%) showed an effect of 50% or more. This is one part of the list.

These molecules were tested against Bcl-2-like protein 10 (Homo sapiens) (UniProt Q9HD36) (assay: Phenotype converters, Bcl-B/TR3 peptide binding displacement, primary biochemical FP (AID 1240;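 also: 0% = Bcl-B with tracer peptide and DMSO and 100% = tracer peptide lacking Bcl-B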)). Conditions: GST-Bcl-B / FITC-TR3 peptide fluorescence polarization; stronger effect = higher value; compound at 3.75 mg/L.
Sequence of UniProt Q9HD36 (Q9HD36 whole entry, looked up): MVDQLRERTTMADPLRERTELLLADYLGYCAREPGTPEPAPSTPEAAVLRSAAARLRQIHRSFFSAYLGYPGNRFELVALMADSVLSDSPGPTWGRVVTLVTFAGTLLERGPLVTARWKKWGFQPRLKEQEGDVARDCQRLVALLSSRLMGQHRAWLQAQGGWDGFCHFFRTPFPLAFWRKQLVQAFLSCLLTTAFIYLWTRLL

Compared with `O=C(NCCO)c1ccc(-c2nnc(Nc3ccc(O)cc3)c3ccccc23)cc1`, `Cc1ccc(C(=O)Nc2nc3ccccc3n2Cc2ccc(Cl)cc2)cc1` is higher in displacement: 0.2% for the first, 9.9% for the second.

Compared with `O=C(Nc1ccc2oc(-c3ccccc3F)nc2c1)c1ccc2c(c1)OCCO2`, `CCc1ccc(-c2nc3cc(NC(=O)c4ccccc4OC)ccc3o2)cc1` is lower in displacement: 17.4% for the first, 8.5% for the second.

Going from `O=C(Nc1ccc(I)cc1)/C(=C\c1cccc([N+](=O)[O-])c1)NC(=O)c1cccs1` to `Cc1cccc(NC(=O)/C(=C\c2cccs2)NC(=O)c2cccs2)c1`, the displacement rises from -0.6% to 12.4%.

Compared with `O=C(CCC1CCCC1)NC1CCCCC1`, `O=S(=O)(NC1CCCCCC1)c1cc(Cl)ccc1Cl` is higher in displacement: -0.2% for the first, 7.3% for the second.

First: CCOc1ccc2c(C(F)(F)F)cc(=O)oc2c1
Second: CCOc1ccc(N2C(=O)C=CC2=O)c([N+](=O)[O-])c1
The displacement of the first is lower: -2.4% for the first, 11.7% for the second.

Compared with `COC(=O)c1ccc(NC(=O)CCCOc2ccccc2)cc1`, `COc1ccc(S(=O)(=O)N(CCc2ccccc2)CC(=O)Nc2ccc(Br)cc2)cc1OC` is higher in displacement: 4.4% for the first, 9.4% for the second.

First: Cn1c(=O)c2c(ncn2CC(=O)N2CCN(c3ccc([N+](=O)[O-])cc3)CC2)n(C)c1=O
Second: O=C(CSc1nc(O)c(Cc2ccccc2)c(=O)n1-c1ccccc1)N1CCOCC1
The displacement of the first is higher: 10.2% for the first, -3.4% for the second.

Compared with `C=COCCNC(=O)C(=O)Nc1ccc(F)cc1`, `O=C(CSc1ccccc1C(=O)O)c1ccc(F)cc1` is lower in displacement: 5% for the first, -3.2% for the second.

Compared with `COC(=O)C1=C(C)NC2=C(C(=O)c3ccccc32)C1c1ccc(-c2cc([N+](=O)[O-])ccc2Cl)o1` (stereo not given), `Cc1cc([N+](=O)[O-])ccc1-c1ccc(C(=O)Nc2ccc(O)c(-c3nc4ccccc4o3)c2)o1` is lower in displacement: 15.5% for the first, 7.1% for the second.

First: CCN1CCC(=NNS(=O)(=O)c2ccc(Cl)cc2)CC1
Second: Cc1ccc(S(=O)(=O)NC(C)(C)CN2CCOCC2)cc1
The displacement of the first is lower: -3% for the first, -1.9% for the second.

Going from `Clc1ccc(-n2ncnc2-c2cccc(Cl)c2)cc1` to `Clc1ccc(C2=NN(c3ccccc3)CC2)cc1`, the displacement falls from -1.9% to -3.3%.

Compared with `CCOc1ccc(Nc2cc(C)nc(-n3nc(C)cc3C)n2)cc1`, `CCOc1ccc(Nc2ncnc3c2oc2ccccc23)cc1` is lower in displacement: 18.4% for the first, 0.5% for the second.

Compared with `COc1ccc(Cl)cc1/C=C1/C(=O)NN(c2cccc(Br)c2)C1=O`, `O=C1NN(c2ccccc2)C(=O)/C1=C\c1cccc([N+](=O)[O-])c1` is higher in displacement: -1.3% for the first, 32.2% for the second.

First: Cc1ccc(NCC(=O)N/N=C\c2ccc(-c3ccc(Cl)cc3)o2)cc1
Second: Cc1ccc(NC(=O)CSc2cc(Cl)ccc2Cl)cc1
The displacement of the first is lower: 2.7% for the first, 19.4% for the second.

Compared with `COCCCN1C(=O)/C(=C\c2ccc(Cl)c(Cl)c2)C(C(=O)OC)=C1C`, `COc1cc(/C=C2/SC(=S)N(CC(=O)O)C2=O)ccc1OCc1ccc(Cl)cc1Cl` is higher in displacement: 3.9% for the first, 18.5% for the second.

Compared with `CC(C)n1c(=S)[nH]c2c1c(=O)n(C)c(=O)n2C`, `Cc1cc2c(cc1C)C(=O)NC(C)(C)C2` is lower in displacement: 9.9% for the first, 8.6% for the second.

Going from `COc1ccc(S(=O)(=O)N2CCN(Cc3ccccc3OC)CC2)cc1` to `COc1ccc(CN2CCN(Cc3ccc(C)cc3)CC2)c(OC)c1OC`, the displacement rises from -7.2% to 1.8%.

Compared with `Cc1cccc(NC(=O)CSc2cc(Cl)ccc2Cl)c1`, `Cc1ccccc1C(=O)Nc1cccc(Cl)c1` is lower in displacement: 7.9% for the first, -4.6% for the second.

Going from `CN1C(=O)C(=Cc2ccc(-c3ccc(Cl)c(Cl)c3)o2)C(=O)N(C)C1=O` to `Nc1c([N+](=O)[O-])cc(Cl)c2c1C(=O)c1ccccc1C2=O`, the displacement falls from -3.8% to -9.1%.

Compared with `O=C(COc1ccc(Cl)cc1Br)NCc1cccnc1`, `O=C(NCCOCc1ccccc1)c1ccc(Cl)cc1Cl` is higher in displacement: 0.4% for the first, 14.2% for the second.

First: O=C(c1cccnc1)N1CCN(C/C=C/c2ccccc2)CC1
Second: O=C(c1cccnc1)N1N=C(c2ccccc2)CC1(O)C(F)(F)C(F)(F)C(F)(F)F (stereo not given)
The displacement of the first is higher: 1.4% for the first, -25.9% for the second.

First: CCOC(=O)COc1ccc(-c2nc3sc(C)c(C)c3c(=O)[nH]2)cc1OCC
Second: CCOC(=O)COc1c(Br)cc(/C=C(\C#N)c2nn(CCO)c(N)c2C#N)cc1OCC
The displacement of the first is higher: 29.1% for the first, -7.5% for the second.

First: O=C(N/N=C/c1cc(Br)c(Br)o1)C(O)(c1ccccc1)c1ccccc1
Second: Cc1nc2ccccn2c1C(=O)N/N=C/c1ccccc1
The displacement of the first is lower: -10.3% for the first, -0.3% for the second.

Going from `COc1ccc(C2SCCN2S(=O)(=O)c2ccc3ccccc3c2)cc1` (stereo not given) to `CCOc1cc(-c2ccc(OC)cc2)[o+]c2c1ccc1ccccc12`, the displacement rises from -11.2% to 6.2%.

Going from `Cc1ccc(C2(c3ccc(C)cc3)CC2C(=O)Nc2cccnc2)cc1` (stereo not given) to `Cc1ccc(C2/C(=C(\O)c3ccccc3)C(=O)C(=O)N2Cc2cccnc2)cc1` (stereo not given), the displacement falls from 1.2% to -8.8%.

Going from `Cc1cc(C)c(OCCCN2CCOCC2)c(Cl)c1` to `Cc1ccc(CSc2nnc(-c3ccco3)o2)c(C)c1`, the displacement falls from 4.9% to -8.7%.

Going from `C=CCNC(=O)C1(c2ccccc2)CC1(Cl)Cl` (stereo not given) to `CC1CCC/C(=N\NC(=O)Nc2ccccc2)C1` (stereo not given), the displacement rises from -15.5% to 26.8%.

Going from `O=C1CSC(c2cccc(Cl)c2Cl)N1` (stereo not given) to `O=C1NC(=O)C(Nc2ccc(Cl)cc2)S1` (stereo not given), the displacement falls from 1.3% to -4.8%.

First: CP(=O)(c1ccc(C(N)=O)cc1)c1ccc(C(N)=O)cc1
Second: Cc1ccc(NC(=O)c2ccccc2N)cc1
The displacement of the first is higher: 0.4% for the first, -8.4% for the second.

Going from `N#CC1=C(SCC(N)=O)NC(=O)CC1c1cccs1` (stereo not given) to `CCOc1cc(C2CC(=O)NC(C)=C2C(=O)OC)cc(Br)c1OC` (stereo not given), the displacement rises from 3.6% to 10.6%.

First: Cc1ccc(NC(=O)c2cc3c(C)nn(-c4ccccc4)c3s2)c(C)c1
Second: Cc1cc([N+](=O)[O-])ccc1NC(=O)C(C)Oc1ccccc1 (stereo not given)
The displacement of the first is higher: 12.4% for the first, 8% for the second.

Compared with `O=C1N/C(=N\N=C\c2ccccc2)S/C1=C\c1ccccc1`, `O=C1N/C(=N\Nc2ccccc2)S/C1=C\c1ccc(Cl)cc1Cl` is lower in displacement: 37.5% for the first, 5.2% for the second.

Compared with `Cc1ccc(-c2csc(NC(=O)C3CC4CCC3C4)n2)cc1` (stereo not given), `CC1=C(C(=O)OC2CCCC2)C(c2ccc(-c3ccccc3)cc2)C2=C(CCCC2=O)N1` (stereo not given) is lower in displacement: 8.6% for the first, -6% for the second.

Compared with `CC1=CC(C)(C)N(C(=O)C(Cc2ccccc2)N2C(=O)c3ccccc3C2=O)c2ccccc21` (stereo not given), `COc1ccccc1N(CC(=O)NCCSCc1ccccc1)S(=O)(=O)c1ccccc1` is higher in displacement: -7.8% for the first, -7.1% for the second.

Compared with `Cc1ccc(C(=O)c2c(C)oc3c2cc(O)c2ccccc23)cc1`, `COc1ccc(CC(=O)Nc2ccc3c(c2)Cc2ccccc2-3)cc1OC` is lower in displacement: 0.5% for the first, -7.7% for the second.

Going from `CS(=O)(=O)N(CC(=O)Nc1cc(Cl)cc(Cl)c1)c1cccc(Cl)c1` to `COc1ccccc1NC(=O)CN(c1ccccc1C)S(C)(=O)=O`, the displacement falls from 1.8% to -4.1%.

First: Cc1ccc(-n2cnnn2)cc1-n1cnnn1
Second: Cc1ccc(Nc2nc3nonc3nc2NNc2ccccc2)cc1Cl
The displacement of the first is higher: -2.1% for the first, -11.9% for the second.

Compared with `C=CCN1C(=O)NC(=O)/C(=C/C=C/c2ccco2)C1=O`, `C=CCN1C(=O)/C(=C\c2ccc(SC)cc2)C(=O)NC1=S` is lower in displacement: 13.2% for the first, -4.1% for the second.

Compared with `O=C(Nc1ccccc1)/C(=C\c1cccs1)NC(=O)c1ccccc1`, `CCOC(=O)c1ccccc1NC(=O)CC(c1ccccc1)c1ccccc1` is lower in displacement: 11.1% for the first, 7.3% for the second.

Compared with `CCOC(=O)c1sc(N/N=C/c2ccccc2O)nc1C`, `C/C(=N\OCC(=O)N/N=C/c1cc(Cl)cc(Cl)c1O)c1cccs1` is higher in displacement: -16.4% for the first, 11.1% for the second.

Compared with `CC(=O)Oc1ccc(/C=c2/sc3nc4c(C)c(C)ccc4n3c2=O)cc1`, `COC(=O)C1=C(O)/C(=C/c2ccc(N(C)C)cc2)N=C1C` is lower in displacement: -10.3% for the first, -30% for the second.

Going from `O=C(CN(CCc1ccccc1)S(=O)(=O)c1ccc(Cl)cc1)NCc1ccccn1` to `O=C(CN1C(=O)/C(=C/c2ccccc2Cl)SC1=S)NCCc1ccccc1`, the displacement rises from -17.4% to 5.3%.

Going from `COC(=O)C1=C(C)NC(C)=C(C(=O)OC)C1c1cn(-c2ccccc2)nc1-c1ccc(S(=O)(=O)N2CCOCC2)cc1` to `COC(=O)C1=C(C)N(C)C(C)=C(C(=O)OC)C1c1cccc(C(F)(F)F)c1`, the displacement falls from 13.6% to -15.8%.

First: COc1cccc(CNc2ccc3c(c2)CCC3)c1OC
Second: COc1ccc(-c2cc3cc(OC)c(OC)cc3c(-c3ccccc3Cl)n2)cc1OC
The displacement of the first is higher: 6.4% for the first, 1.2% for the second.

Compared with `CNC(=O)OC12CC3CC(C)(CC(C)(C3)C1)C2`, `CCC(=O)N1c2ccccc2NC2=C(C(=O)CC(C)(C)C2)C1c1ccccn1` (stereo not given) is lower in displacement: 16.1% for the first, -11.6% for the second.

First: COc1cc(C(=O)Nc2nc(C)c(C)s2)cc(OC)c1OC
Second: CC1CCc2c(sc(NC(=O)c3cc([N+](=O)[O-])ccc3Cl)c2C(N)=O)C1 (stereo not given)
The displacement of the first is lower: 8.1% for the first, 27.3% for the second.

Compared with `O=c1[nH]c(=O)n(-c2cccc3ccccc23)c(O)c1/C=C1\C=Nc2ccccc21`, `Cc1ccc2c(c1)c(-c1ccccc1)c(-c1ccccc1)n2CC(O)CN1C(=O)CSC1=O` (stereo not given) is higher in displacement: -11.6% for the first, 11.4% for the second.

First: Cc1onc(-c2ccccc2)c1C(=O)NCC(C)C
Second: CSc1ccccc1NC(=O)CSc1nc2ccccc2[nH]1
The displacement of the first is lower: -7.2% for the first, 3.8% for the second.

First: CCc1ccc(/C=C2/SC(=S)N(CC(=O)O)C2=O)cc1
Second: Cc1ccc(/C=C2/SC(=S)N(CCC(=O)O)C2=O)o1
The displacement of the first is higher: 2.5% for the first, -27.7% for the second.

Compared with `CCN(CC)c1ccc(N2C(=O)/C(=C\c3ccco3)SC2=S)cc1`, `CN(C)c1ccc(/C=N/N=C2/SC(CC(=O)O)C(=O)N2c2ccc(O)cc2)cc1` (stereo not given) is higher in displacement: 8.6% for the first, 10.8% for the second.

Compared with `Cc1ccccc1C(=O)Nc1ccc(Oc2ccc(NC(=O)c3ccccc3C)cc2)cc1`, `O=C(CSc1nc2ccc([N+](=O)[O-])cc2s1)Nc1ccc2ccccc2c1` is lower in displacement: 4.5% for the first, 2.2% for the second.

First: c1ccc(C2=NNC3(CCCCCCC3)S2)cc1
Second: O=C1c2ccccc2CCC1C1(O)C(=O)Nc2ccc(Br)cc21 (stereo not given)
The displacement of the first is lower: -10.3% for the first, -10.2% for the second.

First: N/C(Cc1ccc([N+](=O)[O-])cc1)=N\OC(=O)c1ccccc1Br
Second: CC(=O)n1cc(Nc2cccc([N+](=O)[O-])c2)c2ccccc21
The displacement of the first is higher: 5.5% for the first, -5.5% for the second.

Going from `O=S(=O)(c1ccc(Cl)cc1)n1cccc1` to `CCN(CC)c1nc(N)nc(NS(=O)(=O)c2ccc(Cl)cc2)n1`, the displacement falls from 6.8% to 2.5%.

For `CC1=C(C(=O)OCCC#N)C(c2cc3c(cc2Br)OCO3)NC(=O)N1` (stereo not given), the displacement was 19.9%.

`O=C(CSc1ncn[nH]1)Nc1ccc([N+](=O)[O-])cc1` was tested, and the displacement was -10.6% and -15.7%.
